The campaign covered roughly 390,000 compounds. About 910 (0.23%) were called active. Another 5% or so got no clear call; they are omitted. Calls follow the shape of the dose curve; as a rule, active = well fitted inhibition curve with a large enough effect; inconclusive = small, poorly fitted or top-dose-only effect; inactive = no such curve, though single readings can be large or run the other way. This is a selection; strong and weak results do not stand in their true shares.
What follows are compounds tested against Ubiquitin carboxyl-terminal hydrolase 1 (Homo sapiens) (UniProt O94782) (assay: Inhibitors of USP1/UAF1: Primary Screen). Conditions: recombinant USP1/UAF1, Ub-Rhodamine cleavage fluorescence; activity change, negative = inhibition: at 57.1 µM (top of the series).
UniProt O94782, sequence (O94782 whole entry, looked up): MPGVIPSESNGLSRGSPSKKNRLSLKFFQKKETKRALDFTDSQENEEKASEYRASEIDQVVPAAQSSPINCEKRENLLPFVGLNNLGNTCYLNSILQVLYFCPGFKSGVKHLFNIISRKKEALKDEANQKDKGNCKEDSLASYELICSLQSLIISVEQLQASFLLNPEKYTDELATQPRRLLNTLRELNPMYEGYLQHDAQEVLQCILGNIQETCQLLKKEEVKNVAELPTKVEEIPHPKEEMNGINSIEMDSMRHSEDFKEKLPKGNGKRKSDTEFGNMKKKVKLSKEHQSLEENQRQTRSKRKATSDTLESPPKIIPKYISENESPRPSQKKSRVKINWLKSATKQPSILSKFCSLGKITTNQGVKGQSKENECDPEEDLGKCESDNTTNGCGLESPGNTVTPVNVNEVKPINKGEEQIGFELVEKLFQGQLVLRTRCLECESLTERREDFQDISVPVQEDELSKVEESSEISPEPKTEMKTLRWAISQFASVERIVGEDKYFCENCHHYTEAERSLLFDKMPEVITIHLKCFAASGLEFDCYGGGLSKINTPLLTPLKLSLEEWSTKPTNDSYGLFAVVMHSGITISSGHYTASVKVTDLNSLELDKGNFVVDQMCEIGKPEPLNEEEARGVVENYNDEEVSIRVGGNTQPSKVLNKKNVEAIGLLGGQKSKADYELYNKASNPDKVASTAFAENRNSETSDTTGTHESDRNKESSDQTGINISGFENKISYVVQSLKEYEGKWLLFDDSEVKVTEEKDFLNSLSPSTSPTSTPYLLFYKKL
Summary of the method: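 1 nM enzyme complex + cpd, 15 min RT; start with Ub-Rho 150nM final; kinetic fluorescence ex 480/em 540, 6 reads q60 s. Buffer 50mM HEPES pH 7.8, 0.5mM EDTA, 0.1 mg/ml BSA, 1mM TCEP, 0.01% Tween-20.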
% is scaled to controls: 0 for no effect and ±100 for the full control effect; potency is read from the fitted curve at half-maximal effect.
Also: nearly all actives have a fitted effect of over 60% in size.

Potency, active:
O=c1[nH]c2ccccc2nc1/C=C(\O)c1cccs1 15.8 µM
CCOc1cccc(CNc2ccc(O)cc2)c1OCc1ccc(Cl)cc1 25.1 µM
Cn1c(-c2c(N)n(CCc3ccccc3)c3nc4ccccc4nc23)nc2ccccc21 28.2 µM
Cc1ccc(N2C(=O)c3cccc4c(N)ccc(c34)C2=O)c2cccnc12 25.1 µM
COCCn1c2nc(=O)n(-c3ccccc3)c(=O)c-2nc2ccccc21 28.2 µM
CC(=Nc1ccc(C)cc1C)c1sc2ccccc2c1O 35.5 µM
O=C1C=C(Nc2cccnc2)c2ccccc2C1=O 14.1 µM
Cc1ccc(N=Cc2cc(Cc3ccccc3Cl)cc([N+](=O)[O-])c2O)c(O)c1 17.8 µM

Activity change, negative = inhibition, inactive:
CC1=CC(=C2N=C(c3ccccc3)OC2=O)C=C(C)O1 115%
O=C(C1=C[C@H](c2ccc(C(F)(F)F)cc2)C[C@H](OCc2ccc(CO)cc2)O1)N1CCN(Cc2ccccc2)CC1 -29.7%
Cn1nc(C(=O)NCc2ccccc2)c2c1-c1ccccc1S(=O)(=O)C2 -10.2%
O=C1NC[C@@H](c2ccccc2)OC(=O)[C@@H](Cc2ccc(F)cc2)CC/C=C/C[C@@H]1CC(=O)N(CCO)Cc1ccccc1 -21.8%
COC(=O)[C@@]12CCCCN1[C@H](c1ccc(-c3ccc(C(C)=O)cc3)cc1)[C@@H]1C(=O)N(C)C(=O)[C@@H]12 -9.01%
COc1ccc(OC)c(NC(=O)CCNS(=O)(=O)c2ccc3c(c2)oc(=O)n3C)c1 -2.83%
COc1ccc(CN(C)C[C@@H]2OCc3cnnn3CCCC(=O)N([C@@H](C)CO)C[C@H]2C)cc1 -4.03%
O=C(NCCn1cc(SCc2ccc(F)cc2)c2ccccc21)c1c(F)cccc1F -18.5%
Cc1ccc(Cn2c(=O)n(-c3ccccc3)c(=O)c3ccc(C(=O)NCc4ccco4)cc32)cc1 -1.39%
CC(=O)c1ccc(NS(=O)(=O)c2cc(-c3cnc(C4CC4)o3)ccc2C)cc1 -28.2%
CCCCCN1C(=O)/C(=C/c2c(N3CCc4ccccc4C3)nc3ccccn3c2=O)SC1=S 18.2%
Cc1cccc(C)c1NC(=O)CN1C(=O)CCSc2ccc(S(=O)(=O)N3CCCC3)cc21 -28.2%
COc1ccc(-c2nc(SCC(=O)NC3CCCC3)c(-c3ccc(OC)cc3)[nH]2)cc1 -0.186%
COc1ccc(CNC(=O)Cn2nc(C)n3cccc3c2=O)cc1 19.4%
CCOc1cc(CNS(=O)(=O)c2ccc3c(c2)CC(=O)N3C)cc(OCC)c1OCC -23.8%
CCOc1ccc(CNC(=O)c2ccc(Sc3ccc(Cl)cc3)c(NC(C)=O)c2)cc1 -26.8%
Cc1ccccc1C(=O)c1cccn1CC(=O)NCc1ccc(Cl)cc1 -17.6%
C[C@H](CO)N1C[C@H](C)[C@@H](CN(C)Cc2ccccc2)OCc2cnnn2CCCC1=O 0.281%
COc1ccc(NC(=O)N(C)C[C@H]2Oc3ccc(NC(=O)CCN4CCOCC4)cc3C(=O)N([C@H](C)CO)C[C@@H]2C)cc1 -9.86%
COc1ccc(NC(=O)CSc2nc3ccccc3nc2N2CCCCC2)cc1 -21.5%
C[C@@H]1CCC[C@]2(O[C@H](CCO)C[C@@H](O)[C@@H]2O)O1 5.76%
COc1ccc(C(CNC(=O)c2oc3cc(C)c(C)cc3c2C)N2CCCCC2)cc1 (centres undefined) -14%
O=C1OC[C@H]2CCCN2C(=O)[C@@H](CC(=O)N(CCO)Cc2ccccc2)C/C=C\CC[C@@H]1Cc1ccc(F)cc1 -31.2%
O=C(CCCN1C(=O)/C(=C\c2cccs2)SC1=S)Nc1cc([N+](=O)[O-])ccc1O -0.805%
CC[C@@H]1C/C=C\Cc2ccccc2[C@H](C(=O)C[C@@H](O)CC(C)=O)OC1=O -2.74%
CCC(=O)N1CCc2cc(S(=O)(=O)NC(Cc3ccccc3)C(=O)O)ccc21 (centres undefined) -7.43%
CCN1C(=O)[C@@H]2[C@@H](c3ccc(-c4ccc(F)cc4)c(OC)c3)N3CCCC[C@@]3(C(=O)OC)[C@@H]2C1=O -29.1%
Cc1ccc(CS(=O)(=O)c2ncc(Cl)c(C(=O)Nc3nnc(C(C)C)s3)n2)cc1 -20%
C[C@@H]1CN([C@H](C)CO)C(=O)CCCn2nncc2CO[C@H]1CN(C)C(=O)CCC(F)(F)F -25.5%
COc1ccc(NC(=O)c2ccc3c(SCC(=O)O)c4c(nc3c2)CCCC4)c(OC)c1 -21.5%
CCOC(=O)[C@@H]1[C@H]2COc3ccc(Br)cc3[C@@H]2N2C(=O)N(c3ccc(Br)cc3)C(=O)[C@@]12C -27.1%
COCCNC(=O)c1ccc2c(c1)N(Cc1cc(C)ccc1C)C(=O)c1ccccc1S2(=O)=O 34.5%
Cc1cccc(-c2nnn3c2nc(NCCc2ccc(S(N)(=O)=O)cc2)c2ccccc23)c1 -3.23%
OCC[C@H]1C[C@@H](O)[C@H](O)[C@]2(CCCc3ccccc3O2)O1 -22.8%
Cc1ccc(-c2cc(C(=O)NCc3cnn(C)c3)c3cc(Br)ccc3n2)cc1 -26.3%
CC(C)C(NS(=O)(=O)c1ccccc1)C(=O)OCc1cc([N+](=O)[O-])cc2c1OCOC2 (centres undefined) -19.8%
CCOC(=O)/C(C#N)=C/c1c(OCC)n(CC)c2ccccc12 -23.8%
C=CCC[C@@H](Cc1ccc(F)cc1)C(=O)OC[C@H](Cc1c[nH]c2ccccc12)NC(=O)[C@H](CC=C)CC(=O)N(CCO)Cc1ccccc1 -9.64%
CCCCCCN1C=CC(=C/C=C(\C#N)C(=O)OCC)C=C1 68.5%
C=CC[C@@H](CC(=O)N[C@@H](CO)Cc1ccccc1)C(=O)N[C@@H](COC(=O)[C@@H](CC=C)CC(=O)OC(C)(C)C)Cc1c[nH]c2ccccc12 -26.2%
COc1cccc(S(=O)(=O)N(C)C[C@H]2OCc3cnnn3CCCC(=O)N([C@H](C)CO)C[C@@H]2C)c1 -15.2%
Cc1ccc(C)c(OCCn2cc(/C=C(/C#N)C(=O)NCC3CCCO3)c3ccccc32)c1 (centres undefined) -16.9%
N#C/C(=C\c1ccc(-c2ccc(F)cc2F)o1)c1nc2ccccc2[nH]1 331%
C[C@H]1CN([C@@H](C)CO)C(=O)c2cc(Br)cnc2O[C@@H]1CN(C)C(=O)Nc1ccc(C(F)(F)F)cc1 -12.8%
CC[C@H](C)Cc1cn([C@@H](CCCN=C(N)N)C(=O)NCCCCCCCCCCC(=O)N2CCNCC2)nn1 21.8%
O=c1cc(-c2ccccc2)nc2cc(-c3ccc(F)cc3)[nH]n12 -7.17%
